The values below come from PMC12820563, “FoxP3 forms a head-to-head dimer in vivo and stabilizes its multimerization on adjacent microsatellites”.

The list shows a part of the results.

The assay has as its target T1, MBP-FoxP1dN (Mus musculus, UniProt P58462 326-579).
T1 sequence: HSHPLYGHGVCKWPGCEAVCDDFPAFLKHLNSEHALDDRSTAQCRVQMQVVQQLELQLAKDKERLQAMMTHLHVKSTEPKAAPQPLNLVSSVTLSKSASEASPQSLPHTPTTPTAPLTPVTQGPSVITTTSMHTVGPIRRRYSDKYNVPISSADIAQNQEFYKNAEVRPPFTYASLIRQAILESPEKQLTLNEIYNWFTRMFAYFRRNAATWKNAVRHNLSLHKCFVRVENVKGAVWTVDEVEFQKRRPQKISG
The experiment in a line: PD-seq (MBP pull-down with sequencing); 20 mM Tris-HCl pH 7.5, 100 mM NaCl, 1.5 mM MgCl2, 0.4 uM protein, 0.1 uM dsDNA library, 30 min, room temperature, amylose pull-down; high values mean tight binding. Particulars: protein: recombinant; tags: His6-MBP; chain copies: 2; dsDNA, one strand shown. In a few lines:
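A degenerate double-stranded DNA library, filled in with Klenow, was added at 0.1 µM to 0.4 µM His6-MBP-tagged mouse FoxP3 or FoxP1 fragment lacking the N-terminus, expressed in E. coli. Incubation lasted 30 min at room temperature in Tris pH 7.5 buffer with NaCl and MgCl2, after which complexes were collected on amylose resin, washed three times, digested with proteinase K to free the DNA, barcoded by PCR and sequenced by Illumina. Binding is the pooled-replicate reads-per-million enrichment of pull-down over input.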
With “GATGATTGTTCTCCCAGCTGATGAATTCGCATCGTCGAGTAAACAAATTTTCCTAATCTTTCTGTTCAAGCGCCATCTAC”, the binding signal is 0.98 RPM ratio (pull-down/input).

As to “GATGATTGTTCTCCCAGCTGATGAATTAGACGTGTCGAGTAAACAAATTTTCCTAATCTTTCTGTTCAAGCGCCATCTAC”, the binding signal is 0.944 RPM ratio (pull-down/input).

In the case of “GATGATTGTTCTCCCAGCTGATGAATTTGGTGCATCGAGTAAACAAATTTTCCTAATCTTTCTGTTCAAGCGCCATCTAC”, the binding signal was 1.3 RPM ratio (pull-down/input).

In the case of “GATGATTGTTCTCCCAGCTGATGAATTTAGATTATCGAGTAAACAAATTTTCCTAATCTTTCTGTTCAAGCGCCATCTAC”, the binding signal is 1.26 RPM ratio (pull-down/input).

In the case of “GATGATTGTTCTCCCAGCTGATGAATTCAACGAGTCGAGTAAACAAATTTTCCTAATCTTTCTGTTCAAGCGCCATCTAC”, the binding signal is 0.741 RPM ratio (pull-down/input).

As for “GATGATTGTTCTCCCAGCTGATGAATTCACACCCTCGAGTAAACAAATTTTCCTAATCTTTCTGTTCAAGCGCCATCTAC”, the binding signal is 0.863 RPM ratio (pull-down/input).

As for “GATGATTGTTCTCCCAGCTGATGAATTTTACCTATCGAGTAAACAAATTTTCCTAATCTTTCTGTTCAAGCGCCATCTAC”, the binding signal is 0.846 RPM ratio (pull-down/input).

In the case of “GATGATTGTTCTCCCAGCTGATGAATTCCTGATGTCGAGTAAACAAATTTTCCTAATCTTTCTGTTCAAGCGCCATCTAC”, the binding signal was 1.08 RPM ratio (pull-down/input).

In the case of “GATGATTGTTCTCCCAGCTGATGAATTAGGGAAATCGAGTAAACAAATTTTCCTAATCTTTCTGTTCAAGCGCCATCTAC”, the binding signal is 1.02 RPM ratio (pull-down/input).

Regarding “GATGATTGTTCTCCCAGCTGATGAATTTTGGACTTCGAGTAAACAAATTTTCCTAATCTTTCTGTTCAAGCGCCATCTAC”, the binding signal was 0.908 RPM ratio (pull-down/input).

On to “GATGATTGTTCTCCCAGCTGATGAATTCCTCTGCTCGAGTAAACAAATTTTCCTAATCTTTCTGTTCAAGCGCCATCTAC”, for which the binding signal is 0.749 RPM ratio (pull-down/input).

As for “GATGATTGTTCTCCCAGCTGATGAATTTGATAATTCGAGTAAACAAATTTTCCTAATCTTTCTGTTCAAGCGCCATCTAC”, the binding signal was 1.02 RPM ratio (pull-down/input).

As to “GATGATTGTTCTCCCAGCTGATGAATTGTCACCCTCGAGTAAACAAATTTTCCTAATCTTTCTGTTCAAGCGCCATCTAC”, the binding signal was 1 RPM ratio (pull-down/input).

Regarding “GATGATTGTTCTCCCAGCTGATGAATTCCCCAGATCGAGTAAACAAATTTTCCTAATCTTTCTGTTCAAGCGCCATCTAC”, the binding signal is 0.834 RPM ratio (pull-down/input).

On to “GATGATTGTTCTCCCAGCTGATGAATTATACGACTCGAGTAAACAAATTTTCCTAATCTTTCTGTTCAAGCGCCATCTAC”, for which the binding signal is 0.919 RPM ratio (pull-down/input).

Regarding “GATGATTGTTCTCCCAGCTGATGAATTCGCGGATTCGAGTAAACAAATTTTCCTAATCTTTCTGTTCAAGCGCCATCTAC”, the binding signal was 0.84 RPM ratio (pull-down/input).

For “GATGATTGTTCTCCCAGCTGATGAATTCACGGTGTCGAGTAAACAAATTTTCCTAATCTTTCTGTTCAAGCGCCATCTAC”, the binding signal is 0.916 RPM ratio (pull-down/input).

On to “GATGATTGTTCTCCCAGCTGATGAATTATGCTCGTCGAGTAAACAAATTTTCCTAATCTTTCTGTTCAAGCGCCATCTAC”, for which the binding signal was 1.01 RPM ratio (pull-down/input).

For “GATGATTGTTCTCCCAGCTGATGAATTTAAAAGTTCGAGTAAACAAATTTTCCTAATCTTTCTGTTCAAGCGCCATCTAC”, the binding signal is 0.888 RPM ratio (pull-down/input).

“GATGATTGTTCTCCCAGCTGATGAATTTCGGGCGTCGAGTAAACAAATTTTCCTAATCTTTCTGTTCAAGCGCCATCTAC”: the binding signal is 0.868 RPM ratio (pull-down/input).

Turning to “GATGATTGTTCTCCCAGCTGATGAATTCCGAGTGTCGAGTAAACAAATTTTCCTAATCTTTCTGTTCAAGCGCCATCTAC”, the binding signal is 0.822 RPM ratio (pull-down/input).

For “GATGATTGTTCTCCCAGCTGATGAATTCAACGCGTCGAGTAAACAAATTTTCCTAATCTTTCTGTTCAAGCGCCATCTAC”, the binding signal is 0.959 RPM ratio (pull-down/input).

Take “GATGATTGTTCTCCCAGCTGATGAATTCGAGGGCTCGAGTAAACAAATTTTCCTAATCTTTCTGTTCAAGCGCCATCTAC”: the binding signal is 0.708 RPM ratio (pull-down/input).

For the sequence “GATGATTGTTCTCCCAGCTGATGAATTGCTATCCTCGAGTAAACAAATTTTCCTAATCTTTCTGTTCAAGCGCCATCTAC”, the binding signal was 0.977 RPM ratio (pull-down/input).

As to “GATGATTGTTCTCCCAGCTGATGAATTACTATAGTCGAGTAAACAAATTTTCCTAATCTTTCTGTTCAAGCGCCATCTAC”, the binding signal was 1.18 RPM ratio (pull-down/input).

On to “GATGATTGTTCTCCCAGCTGATGAATTAACGCGATCGAGTAAACAAATTTTCCTAATCTTTCTGTTCAAGCGCCATCTAC”, for which the binding signal was 0.959 RPM ratio (pull-down/input).

With “GATGATTGTTCTCCCAGCTGATGAATTATAGCTGTCGAGTAAACAAATTTTCCTAATCTTTCTGTTCAAGCGCCATCTAC”, the binding signal is 1.06 RPM ratio (pull-down/input).

For “GATGATTGTTCTCCCAGCTGATGAATTGATTGCCTCGAGTAAACAAATTTTCCTAATCTTTCTGTTCAAGCGCCATCTAC”, the binding signal is 1.05 RPM ratio (pull-down/input).

Consider “GATGATTGTTCTCCCAGCTGATGAATTAATATCATCGAGTAAACAAATTTTCCTAATCTTTCTGTTCAAGCGCCATCTAC”, for which the binding signal is 1.24 RPM ratio (pull-down/input).

Regarding “GATGATTGTTCTCCCAGCTGATGAATTTGAATTCTCGAGTAAACAAATTTTCCTAATCTTTCTGTTCAAGCGCCATCTAC”, the binding signal was 0.834 RPM ratio (pull-down/input).

Take “GATGATTGTTCTCCCAGCTGATGAATTGACCCGATCGAGTAAACAAATTTTCCTAATCTTTCTGTTCAAGCGCCATCTAC”: the binding signal was 0.85 RPM ratio (pull-down/input).
